Assay results published in the supplement of paper PMC11417369.
± gives the standard deviation of the averaged measurements. This is one part of the list.

system: PfAP2-I AP2 domain 3 (GST-tagged); assay: gcPBM binding intensity (ln(normalized median fluorescence intensity)); higher = stronger DNA binding
Outline: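 After 1 h on an Agilent 4 × 180k array of primer-extended double-stranded 36-bp intergenic genomic probes and negative controls, bound GST-tagged P. falciparum DNA-binding domains were detected with Alexa488 anti-GST antibody and scanned at 488 nm. The domains had been expressed in E. coli, and binding took place in 1× PBS with 1% milk, 0.2 mg/ml BSA, 0.5% salmon testes DNA and 0.03% Triton X-100. Binding intensity is the highest Masliner-normalised natural-log median intensity across replicate spots of either probe orientation.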

Sequence | gcPBM binding intensity (ln)
ATTTTTTTACTGCAACCATATTTTTCCCTTTTATTC [CACACA_negctrl_site1282] | 9.02 ± 0.38
TTTTTAATAATCTCTCAAAATGTTCTTATATTTTAC [CACACA_negctrl_site1691] | 7.39 ± 0.68
TAATCTCATAAAACCGCACACACATAAAATTTGCAT [CACACA_site3890] | 8.13 ± 0.39
GAGAAATGGGGACACACACACATATTATAGATATAT [CACACA_site6829] | 8.17 ± 0.31
TAAGGATAAAATAAATGTACATATGTAAAATTATTA [XGTACX_site4170] | 7.49 ± 0.36
TTGTTTGATATCTTTGTCACGAAAAAAATATATATA [GTGCAC_negctrl_site54] | 7.83 ± 0.64
ATACTAAAGAAACACACACACATATATATATAGAAT [CACACA_site100] | 7.84 ± 0.52
TTTACACCCTAAAAATGTACAAGAAAGATTATATTA [XGTACX_site1102] | 7.57 ± 0.38
ATTTTTTTCCTAATGGTGCGAATAAATATCCATACC | 9.79 ± 0.23
TTAACAGTAAAACACAGTACATATATACTTAAAACA [XGTACX_site1930] | 7.6 ± 0.48
TTTTTTTATTATACTAGTACATATATATACAGCACA [XGTACX_site3464] | 9.66 ± 0.81
AAAAAAAAAAAAGGAACACACAAGTAACAATAAATT [CACACA_site2481] | 7.76 ± 0.37
AAAGCTTACATATACACACATACATAAATTCATAAA [CACACA_site2469] | 7.68 ± 0.57
TTTGTCATTTTATTATGTACTCAGCATATAGGGGGG [XGTACX_site505] | 10.4 ± 0.16
GATTTTTAAAATATCACACATAAAAAAAAAAAAAAA [CACACA_site5516] | 8 ± 0.38
AAAAAAATTCTGACTTGTACATATAAAATTTACAAA [XGTACX_site4408] | 7.42 ± 0.39
TAATTTAATAATTAGACACACATGTGGAAAATAAAA [CACACA_site5401] | 8.5 ± 0.34
ACATATATATAAAGGTGTACACATATATATATATAT [XGTACX_site4779] | 9.46 ± 0.2
ATTTATTACAAATGAATGCACTATATCTTAATTTTG | 9.91 ± 0.23
TAAGAAAAAAGTAAATGTACAGAGAAAATTATCTAT [XGTACX_site7374] | 7.62 ± 0.79
ATATATTTCCTGAGGAGTACTATGAAAGACAAAAAA [XGTACX_site5628] | 8.04 ± 0.44
ATAATTTTGATTATCACACATATATATATATATATG [CACACA_site5882] | 8.12 ± 0.52
GTAAAAAGATAATGAAGTACATTTTTTCATTTTTAT [XGTACX_site5579] | 7.64 ± 0.43

Sequence | gcPBM binding intensity (ln)
AAAAAAAAAAAACACACACACACACCCATATACATA [CACACA_site2664] | 7.94 ± 0.35
CATATCCTTACGAACTGTACAATATTAAGAATAAAA [XGTACX_site1651] | 7.8 ± 0.33
ATATATTCAATTCATACACACACAATTTAAGAATGA [CACACA_site9289] | 7.67 ± 0.49
ATATTAAGGTTTATATTTTAACTTATTATTTTATTC [CACACA_negctrl_site795] | 7.41 ± 0.54
ATTTATTTTTTTATCACACATTTGTGAAATGTGCAT [CACACA_site5869] | 7.83 ± 0.73
ATAAAAAAATCAGACACACACACGTAAACCCATACA [CACACA_site2773] | 8.04 ± 0.39
ACATATTTATATATGTGTACATAAATATTCTTTTAA [XGTACX_site8238] | 7.71 ± 0.39
GTTACTGCATACATAACACACATATTCAAAACCCAT [CACACA_site5856] | 8.75 ± 0.26
TTTTCCTTTACATAATGTACACAAAAAAAAAAAAAA [XGTACX_site716] | 8.24 ± 0.51
TCTTTTTTTTGAATTTGTACATAAGACAATAAAAAA [XGTACX_site4682] | 7.83 ± 0.3
CATCATAGAGTGGAGTGTACAAATATGTCAACATAT [XGTACX_site2264] | 7.99 ± 0.55
AATACAGACAGACACACACACAAAATAAAATACAAA [CACACA_site245] | 7.99 ± 0.29
TAGAAGCATTGACACACACACATACATACACATACA [CACACA_site6802] | 8.05 ± 0.42
TATATATATATATAATGTACATAATAATAATACATC [XGTACX_site5587] | 9.19 ± 0.18
GTCTATAACTATTGCGCACACTTTAAAAAAAAAGAA [CACACA_site1003] | 9.9 ± 0.23
CTAGACTTTATTAATTGTACATATGTGTATTTTATA [XGTACX_site480] | 7.63 ± 0.47
ATCCATCTTTTATATAGTACTTTATAATATATATAT [XGTACX_site8064] | 8.77 ± 0.41
CAATGTTAATATAATACACACAATATGTATTTGTCT [CACACA_site1162] | 7.62 ± 0.65
TTGTTAATATATATATGTACTTATTTATTTATTTAT [XGTACX_site2274] | 7.64 ± 0.29
TTTGAATTTTTTAACACACACATGTCTGGATATATA [CACACA_site1645] | 7.93 ± 0.47
GAAAAAAAAAAAAAAAGTACATGTCATAAATTGTAT [XGTACX_site1461] | 7.82 ± 0.64
TTTTCCTTAACACACGTTTATATAAAAAATTAAAAT [XGTACX_negctrl_site115] | 8.2 ± 0.3
AAATTAAAATATATATGTACATATATATATATATAT [XGTACX_site7844] | 9.43 ± 0.55

Sequence | gcPBM binding intensity (ln)
GAGCTTTGGATGAAAGCATGCGATGAATGGATAAAA [TGCATGCA_site786] | 7.91 ± 1
ATTTATTTCAATAAACTTCTTTTCTTTAACAATTAC [CACACA_negctrl_site1222] | 7.38 ± 0.74
CTGTAAAATGTGATGGTGCATATTAATTTAGTTGTA | 10.7 ± 0.58
AACACAAATAAGTATTTGGATTATATTACATTTATA [CACACA_negctrl_site465] | 7.38 ± 0.61
ATAAAAATAAATAAATGTACATATATATATATATAT [XGTACX_site1277] | 9.24 ± 0.23
TAAATAGGAAAACCTATACACACTTTAAAAAAAATA [CACACA_site1621] | 7.42 ± 0.51
TAAATTAAAAAAAAAAACAAAAAAAAAGCAACAAAA [CACACA_negctrl_site1318] | 7.67 ± 0.57
AGTATTTCCATATGTACATGCAAAAGGAAAGATATA [TGCATGCA_site850] | 7.99 ± 0.64
TATTTTTCCCTATGCACACACACCGTATATATAATA [CACACA_site4758] | 9.445 ± 0.035
AAATATAAAAATAGCACACATATATACATATATATA [CACACA_site56] | 8.13 ± 0.59
TGTCCAATTTTTTATCGTACATAATATATAAATAAA [XGTACX_site1705] | 8.01 ± 0.33
TATAAAAATGTGTATGTACACACTTTATTTTTAATA [CACACA_site2532] | 7.63 ± 0.21
AGAAACGTAAGTTATACACACATGTCAAAAGAAAAA [CACACA_site312] | 7.72 ± 0.79
TTGAATATTTAAAAACGTACATAAAATTATTTGATT [XGTACX_site5422] | 7.82 ± 0.38
ATATATATATTTATAGTGCATTTATATTAAAATATC [GTGCAC_site9818] | 10.54 ± 0.021
TCAAATAGAAAATAAAGTACTTAATTTTTAGGAACA [XGTACX_site1446] | 7.92 ± 0.3
ATATATATTTATATATGTACATATTAATATATATAT [XGTACX_site1144] | 8.45 ± 0.15
ATATTTATATTTTTTTGTACATATATAATTTTATAA [XGTACX_site4151] | 7.84 ± 0.49
TTATAGTATTTATAATGTACAAATATATTTTATTTT [XGTACX_site5015] | 7.56 ± 0.41
AATATTTTAAGGCACACACACAAAAAAAAAAAAAAA [CACACA_site2890] | 10.3 ± 0.59
ATTTAAGGGGTGTATGCACACGACTATTCCGTATGA [CACACA_site4738] | 8.6 ± 0.39
TAATTTAGTATCTTTACATGCGGGCATTATGTCATA [TGCATGCA_site167] | 7.97 ± 0.35
CCAAAGGGGGTATACTGTACATATAGTGGTTATATA [XGTACX_site1515] | 8.77 ± 0.28

Sequence | gcPBM binding intensity (ln)
ATAGGCACTTTTTGCACACGTATGAATAACAAAATA [CACACA_site5069] | 9.54 ± 0.13
TGAAAATTTTAATGAGGAAATAAAATAAATATAATA [GTGCAC_negctrl_site159] | 7.6 ± 0.67
TTTATTAATAGACACACACACACACGCAAAATAAAA [CACACA_site6255] | 8.4 ± 0.23
CTTTATTATAAGATTACACACATGTGTTATAATTTA [CACACA_site3169] | 7.64 ± 0.54
TTGACCTTAAGAAGGTTGCACTAATCATTCAAAGTT | 8.71 ± 0.56
CCATTTATTATTTGGGGTACATTTAATTAATATTTT [XGTACX_site5940] | 8.395 ± 0.007
TTTTAAACAAAAAATTGTACAATTAGTGTATAATCC [XGTACX_site778] | 8.07 ± 0.35
AAAAAAAAAAGACACACACACAAATACAAATACATA [CACACA_site6334] | 7.76 ± 0.44
AAAGGAAATTAAAATTGATTACATATATAAAAAAAC [XGTACX_negctrl_site196] | 7.94 ± 0.57
AATTTAATATAATGCACACATAAAAAAAAAAAAAAA [CACACA_site123] | 11.2 ± 0.78
AAGTATTACAACCACACACACACCTATATATTATAT [CACACA_site4158] | 8.07 ± 0.56
AATGAAAAATGTATCGTTAAAGGGTATCTTAAGGAT [XGTACX_negctrl_site222] | 7.63 ± 0.64
CCAAAGAAATATAATACACACAAGAATATATTGGAT [CACACA_site6018] | 7.97 ± 0.57
ACTTGTTTTCAATGTAAAATACAATTTTCATTTATT [CACACA_negctrl_site435] | 7.62 ± 0.66
ATATTATAAAATAAAAGTACACAATTATATATATAT [XGTACX_site8812] | 8.87 ± 0.17
AATAAAATGGAATACGGTACACATAATCCTAAAATG [XGTACX_site926] | 7.67 ± 0.66
TATTTTTAAAATTAAATGAATAAATAAATAAATATA [XGTACX_negctrl_site553] | 7.22 ± 0.41
TTTATATTTATTGTTGTGCACAGAACCATATTCGTT | 10.8 ± 0.21
TATCACTATAGACAAGCATGCATATGTACTAATATC [TGCATGCA_site1020] | 7.94 ± 0.47
TAACATAAATTTAGGAGTACACTTTTTATACATACA [XGTACX_site4066] | 8.04 ± 0.35
